Data from the supplement of paper PMC9334596.
“And” between values parts separate entries of the source, which are not always exact repeats. Identical values can stand only once. The full ranking holds about 5,300 compounds; the median of “PER2::LUC luminescence relative to vehicle control” is about 0.96, and the highest 2% start at about 1.3. Some of the results follow.

System: mPer2Luc MEF
Assay: PER2::LUC luminescence relative to vehicle control (fold of vehicle); higher = higher PER2::LUC reporter signal
Settings: 10 µM
How it was run: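 Compounds from commercial libraries were added at 10 μM to 384-well plates seeded 48 h earlier with ~3000 mPer2Luc mouse embryonic fibroblasts per well. The cells were kept in DMEM with 10% FBS at 37 °C and 5% CO2. Luminescence was read with ONE-Glo 24 h and 30 h after treatment, then an alamarBlue viability assay was run. Values are PER2::LUC luminescence relative to vehicle control, as fold change.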

SMILES | PER2::LUC luminescence (time after treatment 24 h) | PER2::LUC luminescence (time after treatment 30 h)
CCc1c2c(nc3ccc(OC(=O)N4CCC(N5CCCCC5)CC4)cc13)-c1cc3c(c(=O)n1C2)COC(=O)[C@]3(O)CC | 1.03 and 0.886 | 0.881 and 0.909
CC(=O)Nc1c(I)c(NC(C)=O)c(I)c(C(=O)O)c1I | 1.05 and 1.19 | 1 and 1.04
CCc1cc(C(N)=S)ccn1 | 0.945 and 0.876 | 1.11 and 1.1
Cc1ccc(C(=O)Nc2ccc(S(=O)(=O)O)c3cc(S(=O)(=O)O)cc(S(=O)(=O)O)c23)cc1NC(=O)c1cccc(NC(=O)Nc2cccc(C(=O)Nc3cc(C(=O)Nc4ccc(S(=O)(=O)O)c5cc(S(=O)(=O)O)cc(S(=O)(=O)O)c45)ccc3C)c2)c1 | 0.964 and 0.875 | 0.981 and 0.97
CC(=O)Nc1ccc(S(=O)(=O)Nc2ccc([N+](=O)[O-])cc2)cc1 | 1.01 | 1.08
CN(N=O)C(=O)N[C@@H](C=O)[C@@H](O)[C@H](O)[C@H](O)CO | 0.736 | 0.663
O=C1Nc2cc(Br)ccc2/C1=C1/Nc2ccccc2/C1=N\O | 0.773 | 1.09
C[C@@H](O)[C@H]1C(=O)N2C(C(=O)O)=C(SC3CN(C4=NCCS4)C3)[C@H](C)[C@H]12 | 1.03 | 1.01
Cn1cc(C2=C(c3ccc(Cl)cc3Cl)C(=O)NC2=O)c2ccccc21 | 1.02 | 1.05
N#CC(c1ccnc(NCCc2cccnc2)n1)c1nc2ccccc2s1 (stereo not given) | 0.469 | 0.931
O=C(NC(NC(=S)Nc1ccc(F)c([N+](=O)[O-])c1)C(Cl)(Cl)Cl)C(c1ccccc1)c1ccccc1 (stereo not given) | 0.218 | 0.267
Nc1ncnc2c1ncn2[C@@H]1O[C@H](COP(=O)(O)CP(=O)(O)OP(=O)(O)O)[C@H](O)C1O (stereo not given in full) | 0.973 | 0.905
CC(Cc1ccccc1)Nc1ncnc2c1ncn2C1OC(CO)C(O)C1O (single isomer, unassigned; (-)) | 0.925 | 0.965
O=C(N/N=C/c1ccc([N+](=O)[O-])o1)c1ccc(O)cc1 | 1.03 | 0.967
Cc1cccc(Nc2cc(Cl)nc(SCC(=O)O)n2)c1C | 1.23 | 1.01
CCOc1cc2ncc(C#N)c(Nc3ccc(OCc4ccccn4)c(Cl)c3)c2cc1NC(=O)/C=C/CN(C)C | 0.655 | 0.6
Cc1cc(NC(=O)c2cccc(NC(=O)/C=C/CN(C)C)c2)ccc1Nc1nccc(-c2cccnc2)n1 | 0.423 | 0.385
Cc1ccc(C(C)C)cc2c(C)ccc1-2 | 0.949 | 0.913
CN1CCN(C(c2ccccc2)c2ccc(Cl)cc2)CC1 (stereo not given) | 0.668 | 0.74
Cc1cn([C@@H]2C[C@@H](O)[C@H](CO)O2)c(=O)[nH]c1=O | 0.8 and 0.746 | 0.789 and 0.823

SMILES | PER2::LUC luminescence (time after treatment 24 h) | PER2::LUC luminescence (time after treatment 30 h)
NC(=O)c1ncn([C@@H]2O[C@H](CO)[C@@H](O)[C@H]2O)c1O | 1.01 | 1.05
Cn1cnc2c(ncn2[C@@H]2O[C@H](CO)[C@@H](O)[C@H]2O)c1=N | 0.94 | 1
Cc1ccc(S(=O)(=O)NCl)cc1 | 1.03 | 0.939
Cn1c(=O)c2[nH]c(-c3ccc(S(=O)(=O)O)cc3)nc2n(C)c1=O | 1.08 | 0.98
C[C@@H]1O[C@@H]1P(=O)(O)O | 1.04 and 0.887 | 0.997 and 1.05
C[C@@H]1CN(c2c(F)c(N)c3c(=O)c(C(=O)O)cn(C4CC4)c3c2F)C[C@H](C)N1 | 1.14 | 1.03
CN=C(N)NCCC[C@H](N)C(=O)O | 0.857 | 0.894
Nc1ncnc2c1ncn2[C@@H]1O[C@H](CSCC[C@H](N)C(=O)O)[C@@H](O)[C@H]1O | 0.947 | 0.977
CCNC(=O)c1noc(-c2cc(Cl)c(O)cc2O)c1-c1ccc(OC)cc1 | 0.082 | 0.07
CCCCCCCCCCC(C)(C)C(=O)Nc1c(OC)cc(OC)cc1OC | 0.964 | 0.972
CC#CCOC(=O)c1c(C)nc2sc3c(c2c1N)CCC(O)C3 (stereo not given) | 1.03 | 0.812
CCCCC(=O)Oc1ccccc1C(=O)O | 0.993 | 1.03
CC[C@]12CCCN3CCc4c(n(c5ccccc45)C(=O)C1)[C@@H]32 | 0.939 and 0.983 | 1.02 and 0.866
N#CN=C(NCCCCCCOc1ccc(Cl)cc1)Nc1ccncc1 | 0.751 | 0.551
CCn1cc(C(=O)O)c(=O)c2cc(F)c(N3CCN(C)CC3)cc21 | 0.994 and 1.02 | 1.12 and 1.08
CCn1cc(C(=O)O)c(=O)c2cc(F)c(N3CCNC(C)C3)c(F)c21 (stereo not given) | 1.1 and 0.956 | 0.923 and 0.892
COc1cc(C)nc(-n2nc(C)cc2OC)n1 | 1.04 | 1.11
CS(=O)(=O)Nc1ccc([N+](=O)[O-])cc1Oc1ccccc1 | 1.14 | 0.947
C=CC(=O)Nc1cccc(Nc2nc(Nc3ccc(NC4CN(CCF)C4)cc3OC)ncc2C(F)(F)F)c1 | 0.3 | 0.262
NCC(O)c1ccc(O)c(O)c1 (stereo not given) | 1.47 | 1.55
